Source: a collection of fitness landscapes (doi:10.1016/j.celrep.2020.107928)
Over roughly 81,000 sequences, “one-hybrid fitness for binding NBS DNA” has its median near -0.1; the highest 2% begin near 0.36. The list shows a part of the results.

B1: Caulobacter ParB omega fusion; a variant is named by its letters at X, in order, B8GW30 (parent)
chain: MESVVVGEPGMSEGRRGLGRGLSALLGEVDAAPAQAPGEQLGGSREAPIEILQRNPDQPRRTFREEDLEDLSNSIREKGVLQPILVRPSPDTAGEYQIVAGERAWRAAQRAGLKTVPIMVRELDDLAVLEIGIIENVQRADLNVLEEALSYKVLMEKFERTQENIAQTIGKSXSHVANXMRLLXLPDEVQSYLVSGELTAXHARAIAAAADPVALAKQIIEGGLSVRETEALARKAPNLSAGKSKGGRPPRVKDTDTQALESDLSSVLGLDVSIDHRGSTGTLTITYATLEQLDDLCNRLTRGI

Variants of: B1
Test: one-hybrid fitness for binding NBS DNA (the Noc-binding site; scaled: cognate 1, non-cognate 0); higher = stronger binding
Conditions: with NBS DNA site
Summary of the method: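 Selection: bacterial one-hybrid in E. coli USO, HIS3 reporter with the site 19 bp from the promoter, 48 hours at 37°C on M9-minus-histidine plus 0.1 mM IPTG and 5 mM 3-AT. Libraries were Caulobacter ParB with four randomised specificity codons, sequenced on Illumina before and after selection. Fitness is the rescaled log change in variant-to-wild-type read ratio, anchored to the cognate and non-cognate sites.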

one-hybrid fitness for binding NBS DNA, 0.552:
KRKA

one-hybrid fitness for binding NBS DNA, 0.553:
QCST

one-hybrid fitness for binding NBS DNA, 0.428:
QCVT

one-hybrid fitness for binding NBS DNA, 0.377:
QPVR

one-hybrid fitness for binding NBS DNA, 0.595:
CGAE

one-hybrid fitness for binding NBS DNA, 0.23:
CRHR

one-hybrid fitness for binding NBS DNA, 0.206:
CWKR

one-hybrid fitness for binding NBS DNA, ≤ 0.2:
NGSR
RWSP
AINM
THVV
AFSC
TLYL
IAPV
CKTR
YCEC
SSKN
IGMS
TDWP
YPDG
WASP
AIRR
VRSQ
MILI
EDIS
RQCC
VFKW
PDTR
WPVC
LRGA
SIHV
ANQR
WFTR
VGQM
PKYG
EIEL
PPAE
FVAC
PTYE
SNWT
RYET
LLLN
TTHD
ASCL
YWRN
DLYM
QPEY
GWVR
RKMG
RESL
IRAF
RTMK
TPTF
YLSD
QPPK
YWVL
AFHR
ASMR
QTCD
ECMP
HLHF
HLIV
RPTL
FKAA
DLYS
GLGL
AIMG
RREM
YLEY
STQM
PQPR
ISCY
GDWL
LAEP
CTTG
GQIS
ENRG
TGQR
SHEK
QKGD
FGNC
SLTK
QFSK
QYNF
VTVE
LVSF
APIL
CQRM
VQSC
PHAL
NISL
IAHF
FATD
DLRY
FGMR
RPQE
GTLL
CKRT
TWRC
QGPQ
SAYS
DGLF
RWQK
TPIL
SANP
PNAH
RANE
AAAW
GLPF
HKTR
KSMI
FGTM
RMEP
GSRV
NELV
KLFE
TCSV
AYAM
GCSS
PPSF
LISM
NPKY
GMPT
PYGG
CRHA
QVFY
HCEG
NVNR
PACR
IRHF
HRHP
LYWE
KADC
HEKD
AGGQ
PDNW
KNPS
GVPG
HRHT
TTLI
DFLP
KERS
ASEG
NIGW
KRFK
GSWG
NQTS
KCKK
MSLT
WMIA
YNSC
DNVS
WLNT
LDES
NVLT
VYTT
NLHH
YDYI
PRHA
IKVF
PNTC
LSSR
PQWW
SVEG
SNAT
GFTP
DHPI
KCSF
ATHW
SEWR
EICA
NKWR
NMST
IPTS
HKTW
PSRS
TWKE
SPGY
YHHW
PKSP
YCST
IVLR
APIC
IQDW
KVNV
GAPV
NPPN
STMP
ISTI
HHPR
HHRL

one-hybrid fitness for binding NBS DNA, 0.251:
QMFS

one-hybrid fitness for binding NBS DNA, 0.239:
QIKC

one-hybrid fitness for binding NBS DNA, 0.327:
QHVT

one-hybrid fitness for binding NBS DNA, 0.317:
QTES
